PMC4336329 (PLoS ONE, 2015)
In all, about 310,000 compounds went through this assay and about 14,000 (4.5%) showed an effect of 50% or more. The effect is printed as a negative number. The list shows a part of the results. Where a SMILES comes first, the peptide text is derived from it. The star is where a group is joined. Cbz = O=C(OCc1ccccc1)*
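Further: peak tail current of the secondary pulse compared with the same well before compound.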

The compounds below were run against human ether-à-go-go-related gene (hERG) potassium channel (human, UniProt Q12809) (assay: primary screen, population patch clamp on CHO cells stably expressing hERG).
Chain of human ether-à-go-go-related gene (hERG) potassium channel (Q12809 whole entry, looked up): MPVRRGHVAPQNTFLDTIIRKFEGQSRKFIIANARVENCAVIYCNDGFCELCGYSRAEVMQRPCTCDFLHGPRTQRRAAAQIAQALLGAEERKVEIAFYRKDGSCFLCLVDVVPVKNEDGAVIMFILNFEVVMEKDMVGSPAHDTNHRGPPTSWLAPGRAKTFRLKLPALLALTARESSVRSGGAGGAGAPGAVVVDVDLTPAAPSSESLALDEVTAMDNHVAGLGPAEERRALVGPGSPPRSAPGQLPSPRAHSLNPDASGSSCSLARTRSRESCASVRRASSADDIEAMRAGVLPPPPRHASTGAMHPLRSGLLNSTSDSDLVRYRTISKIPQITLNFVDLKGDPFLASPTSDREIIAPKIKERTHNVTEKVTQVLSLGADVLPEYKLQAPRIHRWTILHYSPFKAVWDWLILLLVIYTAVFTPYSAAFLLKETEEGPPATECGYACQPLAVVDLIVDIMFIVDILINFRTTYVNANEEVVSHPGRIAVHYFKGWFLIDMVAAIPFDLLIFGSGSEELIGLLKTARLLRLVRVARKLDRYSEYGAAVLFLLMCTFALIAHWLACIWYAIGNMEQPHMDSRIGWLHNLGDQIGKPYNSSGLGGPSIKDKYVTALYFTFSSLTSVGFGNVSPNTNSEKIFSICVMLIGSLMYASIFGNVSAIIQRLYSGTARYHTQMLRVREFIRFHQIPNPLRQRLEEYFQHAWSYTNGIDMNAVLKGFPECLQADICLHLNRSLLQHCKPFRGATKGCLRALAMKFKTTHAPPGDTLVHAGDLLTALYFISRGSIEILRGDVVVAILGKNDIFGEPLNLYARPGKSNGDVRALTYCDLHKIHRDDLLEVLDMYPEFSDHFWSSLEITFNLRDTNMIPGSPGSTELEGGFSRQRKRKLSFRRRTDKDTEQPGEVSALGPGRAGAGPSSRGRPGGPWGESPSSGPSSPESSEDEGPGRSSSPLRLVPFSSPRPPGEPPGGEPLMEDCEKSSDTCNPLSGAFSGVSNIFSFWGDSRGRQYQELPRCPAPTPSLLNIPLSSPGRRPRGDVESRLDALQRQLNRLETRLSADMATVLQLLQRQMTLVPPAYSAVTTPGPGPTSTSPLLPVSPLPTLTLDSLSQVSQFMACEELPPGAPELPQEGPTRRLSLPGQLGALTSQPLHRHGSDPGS
With `C/C(=N\O)c1ccc2[nH]ccc2c1` the “hERG current change (%, negative = inhibition) at 10uM” value was 4.89%.
`CCCOC(=O)CSc1nc(N2CCOCC2)c2c(c1C#N)CC(C)(C)OC2` was tested, and the “hERG current change (%, negative = inhibition) at 10uM” value was -40.5%.
With `CCc1ccc(C2CC(=O)N(c3ccc(F)cc3)C3=C2C(=O)OC3)cc1` (stereo not drawn) the “hERG current change (%, negative = inhibition) at 10uM” value was -27%.
In the case of `Cc1ccc(C)c(-c2cc(C(=O)NC3CC3)c3ccccc3n2)c1`, the “hERG current change (%, negative = inhibition) at 10uM” value is reported as -61.1%.
`COc1ccc(C2=NN(C(=O)CCC(=O)O)C(c3ccccc3OC)C2)cc1` (stereo not drawn) was tested, and the “hERG current change (%, negative = inhibition) at 10uM” value was 10.6%.
`OC(COC(c1ccccc1)c1ccccc1)CN1CCN(c2ccccn2)CC1` (stereo not drawn) was tested, and the “hERG current change (%, negative = inhibition) at 10uM” value was -74.7%.
For `COC(=O)C1=C(c2ccccc2)C[C@@H]2CC[C@H]1N2C(=O)NCC1CC1`, the “hERG current change (%, negative = inhibition) at 10uM” value was 1.45%.
In the case of `CC(C)N1C(=S)SC(C)(C)C1n1oc(=O)n(-c2ccc(Cl)c(Cl)c2)c1=O` (stereo not drawn), the “hERG current change (%, negative = inhibition) at 10uM” value is reported as -6.25%.
With `CC(Sc1nnc(C(F)(F)F)n1C)C(=O)NC(N)=O` (stereo not drawn) the “hERG current change (%, negative = inhibition) at 10uM” value was 5.23%.
For `COc1ccc(C(=O)CCC(=O)Nc2ccc(N3CCCCC3)cc2)cc1OC`, the “hERG current change (%, negative = inhibition) at 10uM” value was 9.35%.
For `OCC[C@@H]1C[C@H](O)[C@@H](O)[C@]2(CCc3ccccc3O2)O1`, the “hERG current change (%, negative = inhibition) at 10uM” value was 27.4%.
With `CCC(O)C1CCN(C(=O)c2cc(COc3ccc(F)cc3F)on2)CC1` (stereo not drawn) the “hERG current change (%, negative = inhibition) at 10uM” value was 1.82%.
In the case of `S=C(NCc1ccccc1)NCc1cccc(CNC(=S)NCc2ccccc2)c1`, the “hERG current change (%, negative = inhibition) at 10uM” value is reported as 21.7%.
`CC(C)C(NC(=O)OCc1ccccc1)C(=O)NC(Cc1ccc(O)cc1)C(=O)O` (stereo not drawn) (Cbz-Val-Tyr-OH; configuration not given here) was tested, and the “hERG current change (%, negative = inhibition) at 10uM” value was 13.6%.
For `Cn1cccc1C(=O)NC(=O)COC(=O)c1ccccc1O`, the “hERG current change (%, negative = inhibition) at 10uM” value was -6.93%.
`Cc1ccc(COc2ccc(S(=O)(=O)N3CCCC3)cc2C(N)=O)cc1` was tested, and the “hERG current change (%, negative = inhibition) at 10uM” value was 18.6%.
For `CNC(=O)/C(C#N)=C/c1c(N(Cc2ccccc2)Cc2ccccc2)nc2c(C)cccn2c1=O`, the “hERG current change (%, negative = inhibition) at 10uM” value was 1.97%.
For `O=C(N/N=C/c1ccc[nH]1)c1cccc(Br)c1`, the “hERG current change (%, negative = inhibition) at 10uM” value was -13.6%.
For `Cc1ccccc1S(=O)(=O)Cc1ccc(C(=O)N2CCN(c3cccc(C)c3C)CC2)o1`, the “hERG current change (%, negative = inhibition) at 10uM” value was -15.1%.
In the case of `Cn1c(=O)c2ncn(CC(=O)Nc3nc(-c4ccc(Cl)cc4)cs3)c2n(C)c1=O`, the “hERG current change (%, negative = inhibition) at 10uM” value is reported as 12.1%.
In the case of `CC(C)C(=O)NC(=S)Nc1sc2c(c1C(N)=O)CCCC2`, the “hERG current change (%, negative = inhibition) at 10uM” value is reported as 13.5%.
`COC(=O)C1=C(C)N(Cc2ccccc2)C(=NCc2cc(OC)c(OC)c(OC)c2)N[C@H]1c1cccc(F)c1` was tested, and the “hERG current change (%, negative = inhibition) at 10uM” value was -23%.
For `C=CCn1c(COc2cccc(C)c2)nnc1SCC(=O)c1c[nH]c2c(CC)cccc12`, the “hERG current change (%, negative = inhibition) at 10uM” value was 16.5%.
For `O=C(OCC(=O)c1ccc[nH]1)c1ccc(Cl)nc1`, the “hERG current change (%, negative = inhibition) at 10uM” value was -5.61%.
With `Cc1ccc(-n2c(C)cc(C(=O)OCC(=O)N(CC(C)C)C3CCS(=O)(=O)C3)c2C)cc1` (stereo not drawn) the “hERG current change (%, negative = inhibition) at 10uM” value was 5.94%.
With `CCN(c1ccccc1)S(=O)(=O)c1ccc(OC)c(NC(=O)CCc2nc3ccccc3c(=O)[nH]2)c1` the “hERG current change (%, negative = inhibition) at 10uM” value was -51.2%.
With `CCN(CC)C(=O)CN(Cc1ccccc1)S(=O)(=O)c1ccc(F)cc1` the “hERG current change (%, negative = inhibition) at 10uM” value was -0.66%.
In the case of `Clc1ccc(-c2csc3ncnc(N4CCc5ccccc5C4)c23)cc1`, the “hERG current change (%, negative = inhibition) at 10uM” value is reported as -3.52%.
`C/C(CC(=O)Nc1c(C)cc(C)cc1C)=N\NC(=O)Cc1ccccc1` was tested, and the “hERG current change (%, negative = inhibition) at 10uM” value was -1.97%.
With `CCCCOc1ccc(C(=O)NCC2(c3ccc(OC)cc3)CCOCC2)cc1` the “hERG current change (%, negative = inhibition) at 10uM” value was -42.3%.
In the case of `CC1(C)CN=C(Nc2ccc(F)c(F)c2)S1`, the “hERG current change (%, negative = inhibition) at 10uM” value is reported as 10.3%.
For `N=Cc1c(O)n(-c2ccc(C34CC5CC(CC(C5)C3)C4)cc2)c(=O)[nH]c1=O`, the “hERG current change (%, negative = inhibition) at 10uM” value was 1.23%.
In the case of `CS(=O)(=O)N(CC(=O)NC1CC2CCC1C2)c1cccc(C(F)(F)F)c1` (stereo not drawn), the “hERG current change (%, negative = inhibition) at 10uM” value is reported as 2.48%.
For `Cc1cc(N(C)C)c(C#N)c(=O)[nH]1`, the “hERG current change (%, negative = inhibition) at 10uM” value was 14.1%.
In the case of `CCOc1ccc(OCC)c(NC(=O)CSc2nc3cccnc3n2C)c1`, the “hERG current change (%, negative = inhibition) at 10uM” value is reported as -23%.
In the case of `O=C(O)C(Cc1ccccc1)N1C(=O)/C(=C/c2cccnc2)SC1=S` (stereo not drawn), the “hERG current change (%, negative = inhibition) at 10uM” value is reported as 14%.
For `COc1ccc(NC(=O)c2cc3c(s2)CCC(C)C3)cc1S(=O)(=O)N1CCOCC1` (stereo not drawn), the “hERG current change (%, negative = inhibition) at 10uM” value was -19.1%.
With `CS(=O)(=O)Nc1cccc(-c2cn3c(n2)SCC3)c1` the “hERG current change (%, negative = inhibition) at 10uM” value was 23.6%.
With `Cc1cccc(N2CCN(C(=O)Cn3ccc4ccccc4c3=O)CC2)c1C` the “hERG current change (%, negative = inhibition) at 10uM” value was -23.1%.
With `O=C(Cc1ncc(C(F)(F)F)cc1Cl)NC1CC1` the “hERG current change (%, negative = inhibition) at 10uM” value was 8.6%.
With `Cn1c(-c2csc(-c3ccccc3)n2)n[nH]c1=S` the “hERG current change (%, negative = inhibition) at 10uM” value was 25.6%.
In the case of `CC(NC(=O)c1ccco1)C(=O)NC(C)c1cc(F)c(Cl)cc1Cl` (stereo not drawn), the “hERG current change (%, negative = inhibition) at 10uM” value is reported as 22.5%.
`CCOC(=O)N1CCN(C(=O)CCCn2nnnc2CN2CCC(C)CC2)CC1` was tested, and the “hERG current change (%, negative = inhibition) at 10uM” value was 13%.
For `O=C(Nc1nnc(C2CC2)s1)c1cc(-c2ccccc2)nn1-c1ccccc1`, the “hERG current change (%, negative = inhibition) at 10uM” value was 2.63%.
In the case of `CCOC(=O)c1cn(-c2c(Cl)cccc2Cl)c2cc(Cl)c([N+](=O)[O-])cc2c1=O`, the “hERG current change (%, negative = inhibition) at 10uM” value is reported as -4.21%.
For `COc1cc(C2/C(=C(\O)c3ccc4c(c3)CC(C)O4)C(=O)C(=O)N2c2nnc(C)s2)cc(OC)c1OC` (stereo not drawn), the “hERG current change (%, negative = inhibition) at 10uM” value was 9.14%.
In the case of `COC(=O)C1CCN(C(=O)/C(C)=C\c2ccccc2)CC1`, the “hERG current change (%, negative = inhibition) at 10uM” value is reported as 2.91%.
`O=C(NCCc1c[nH]c2ccccc12)c1ccc(-n2cnnn2)cc1` was tested, and the “hERG current change (%, negative = inhibition) at 10uM” value was -31.1%.
For `Cc1ccc(CN(C(=O)COc2ccc([N+](=O)[O-])cc2)C2CCS(=O)(=O)C2)o1` (stereo not drawn), the “hERG current change (%, negative = inhibition) at 10uM” value was -34.4%.
`O=C(C1CCCCC1)N1CCc2ccccc21` was tested, and the “hERG current change (%, negative = inhibition) at 10uM” value was 11.7%.
`CCC(=O)Nc1nnc(SCc2ccccc2F)s1` was tested, and the “hERG current change (%, negative = inhibition) at 10uM” value was 11.4%.
In the case of `CN(CC(=O)Nc1nc2ccc(F)cc2s1)S(=O)(=O)c1ccc(Cl)cc1`, the “hERG current change (%, negative = inhibition) at 10uM” value is reported as 11.9%.
For `COc1cc(C(=S)N2CCOCC2)ccc1OS(=O)(=O)c1ccccc1[N+](=O)[O-]`, the “hERG current change (%, negative = inhibition) at 10uM” value was -1.24%.
For `COc1ccc(NC(=S)N2CCCN(Cc3cccc(Cl)c3)C2)cc1`, the “hERG current change (%, negative = inhibition) at 10uM” value was -38.6%.
